Measurements as given in the BET-seq Pho4 binding data (Le et al. 2018).
The list shows a part of the results. These are noisy estimates, calculated here from bound and input reads.

Target: T1, Pho4 (S. cerevisiae) (UniProt P07270)
T1 sequence: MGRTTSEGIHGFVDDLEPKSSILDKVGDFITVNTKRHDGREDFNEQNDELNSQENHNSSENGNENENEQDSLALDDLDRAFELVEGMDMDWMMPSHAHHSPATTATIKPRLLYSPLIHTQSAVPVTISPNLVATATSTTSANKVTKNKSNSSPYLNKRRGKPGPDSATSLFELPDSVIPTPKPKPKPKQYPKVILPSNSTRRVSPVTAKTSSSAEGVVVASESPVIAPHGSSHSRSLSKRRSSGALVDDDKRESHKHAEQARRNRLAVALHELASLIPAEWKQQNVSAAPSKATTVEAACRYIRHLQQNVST
Assay: relative binding free energy (BET-seq); higher = weaker binding
Conditions: reference: library average

Row | Sequence | relative binding free energy
1 | AGCTGCACGTGAGGGG | 0.2 kcal/mol
2 | TTAGGCACGTGAGAGC | 0.16 kcal/mol
3 | GAGGACACGTGTATTT | 0.16 kcal/mol
4 | GGGGCCACGTGGGGTT | -0.19 kcal/mol
5 | TGTAACACGTGTTTTG | 0.04 kcal/mol
6 | TGGGGCACGTGCGGGT | -0.17 kcal/mol
7 | TGGGGCACGTGGTTTC | -0.06 kcal/mol
8 | ATTTGCACGTGAGAGA | 0.2 kcal/mol
9 | TTACACACGTGATTTG | 0.21 kcal/mol
10 | GCGTACACGTGGGGTA | -0.09 kcal/mol
11 | GGGCACACGTGGGAGA | 0.05 kcal/mol
12 | TGTGTCACGTGAAGTA | 0.32 kcal/mol
13 | AGTTTCACGTGAGGGT | 0.41 kcal/mol
14 | TTGGGCACGTGGCTTG | -0.15 kcal/mol
15 | AATGTCACGTGTTGGT | 0 kcal/mol
16 | TGGATCACGTGTGGTC | 0.19 kcal/mol
17 | AGAAGCACGTGCGTTG | -0.14 kcal/mol
18 | TATTGCACGTGACATG | 0.06 kcal/mol
19 | CGTGGCACGTGTAATT | -0.02 kcal/mol
20 | GGGCTCACGTGGAAGT | 0.33 kcal/mol
21 | CACGGCACGTGTGGTG | 0.09 kcal/mol
22 | TCTCTCACGTGTTGGG | 0.04 kcal/mol
23 | TAGGACACGTGTGTTC | 0.12 kcal/mol
24 | TTGATCACGTGGGTAT | -0.09 kcal/mol
25 | GTGGCCACGTGGGGCC | -0.21 kcal/mol

Row | Sequence | relative binding free energy
26 | CGCGTCACGTGGGGGA | -0.15 kcal/mol
27 | GTAATCACGTGCGGAT | 0.27 kcal/mol
28 | TTATGCACGTGGTACA | -0.2 kcal/mol
29 | GTGCTCACGTGGCGGT | 0.15 kcal/mol
30 | TTTATCACGTGTATTA | 0.14 kcal/mol
31 | AGGTTCACGTGGATAT | 0.3 kcal/mol
32 | TATGTCACGTGGGCAG | -0.05 kcal/mol
33 | TATATCACGTGCGGTT | 0.07 kcal/mol
34 | AGGAGCACGTGGGAGC | -0.16 kcal/mol
35 | ATTAACACGTGTGGCT | 0.08 kcal/mol
36 | GGATTCACGTGTAGTC | 0.36 kcal/mol
37 | TGCATCACGTGGAGGT | 0.1 kcal/mol
38 | ATGTTCACGTGAGAAG | 0.35 kcal/mol
39 | ATTCACACGTGGTTGA | 0.14 kcal/mol
40 | TAGTACACGTGTTGTT | -0.02 kcal/mol
41 | TGCTGCACGTGCTGTT | -0.11 kcal/mol
42 | CTTGTCACGTGAGTGA | 0.24 kcal/mol
43 | TTTGGCACGTGTCATG | 0.04 kcal/mol
44 | ATTAACACGTGGCGGT | -0.03 kcal/mol
45 | TTTGACACGTGTTAGG | 0.08 kcal/mol
46 | CTATGCACGTGGTATA | -0.11 kcal/mol
47 | ATGGGCACGTGATGTC | 0.01 kcal/mol
48 | GTTTTCACGTGTAGAT | 0.39 kcal/mol
49 | GGGTGCACGTGTTGAA | 0.02 kcal/mol
50 | TGTAACACGTGGGCTT | -0.2 kcal/mol
